Source: the supplement of paper PMC12217912
Some of the results follow. Sequences were assembled here from the parent chain. Inactive controls read about 0.05.

B1: TEV protease; numbered along this chain (parent)
chain: MGESLFKGPRDYNPISSSICHLTNESDGHTTSLYGIGFGPFIITNKHLFRRNNGTLVVQSLHGVFKVKDTTTLQQHLVDGRDMIIIRMPKDFPPFPQKLKFREPQREERICLVTTNFQTKSMSSMVSDTSCTFPSGDGIFWKHWIQTKDGQCGSPLVSTRDGFIVGIHSASNFTNTNNYFTSVPKNFMELLTNQEAQQWVSGWRLNADSVLWGGHKVFMVKPEEPFQPVKEATQL

Variants of: B1
Assay: raw area under fraction-flipped curve 0-4 h after induction (AUC4h, not background-subtracted), DNA-recorder readout of cleavage of the substrate (dimensionless); higher = more cleavage of the substrate by the protease variant
Details: temperature: 34 °C; time window: 0-4 h after rhamnose induction
Description: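 In vivo DNA recorder in E. coli TOP10(DE3) ΔrhaA at 34 °C. Each TEVp single-site mutant (parent TEVp 0) is paired with a single-site variant of the 7-mer TEVs (canonical ENLYFQ|S). The substrate sits between flexible linkers in a Bxb1-sfGFP-TEVs-SsrA fusion, so cleavage stabilises Bxb1 and speeds flipping of a recombination array, read by NGS. The value is the raw area under the fraction-flipped curve over 0-4 h after rhamnose induction (AUC4h), with ≥20 reads per time point. It is not background-subtracted; inactive controls average about 0.047.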
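Note: Bxb1 expression induced with 0.2% (w/v) L-rhamnose at OD600 near 0.5, cultures sampled hourly, flipped fraction per protease–substrate barcode pair counted by paired-end Illumina sequencing.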

Variant	area with substrate ENLAFQS	area with substrate ENLCFQS	area with substrate ENLDFQS	area with substrate ENLEFQS	area with substrate ENLFFQS	area with substrate ENLGFQS	area with substrate ENLHFQS	area with substrate ENLIFQS	area with substrate ENLKFQS	area with substrate ENLMFQS	area with substrate ENLNFQS	area with substrate ENLPFQS	area with substrate ENLQFQS	area with substrate ENLRFQS	area with substrate ENLSFQS	area with substrate ENLTFQS	area with substrate ENLVFQS	area with substrate ENLWFQS	area with substrate ENLLFQS
V217C	0.0248	0.0417	0.0627	0.064	0.0826	0.0607	0.0709	0.0922	0.0689	0.0796	0.0681	0.0536	0.0651	0.0868	0.0652	0.0738	0.079	0.0527	–
V217P	0.0609	0.0598	0.0632	0.0636	0.061	–	0.0617	–	0.0604	–	0.0651	0.0623	–	–	0.0777	–	0.0507	–	–
M219S	0.0545	–	0.0636	0.0625	0.075	–	0.068	0.0709	0.0627	0.0583	0.0674	0.0604	0.0635	0.0578	0.0611	0.0527	0.0793	0.0612	0.0594
V220M	0.0598	–	0.0531	–	0.0886	–	0.073	0.0815	0.082	0.0564	–	0.048	–	0.0742	–	0.0721	–	–	–
V220W	0.0599	0.0667	0.0675	0.0741	0.116	–	0.0604	0.0603	0.0746	–	0.0661	0.055	0.0911	0.0715	0.0488	0.0546	–	0.0706	0.0664
K221F	0.0783	0.0715	0.0636	0.0668	0.0767	0.0623	0.0775	0.0715	0.0852	0.0821	0.0674	0.057	0.071	0.0808	0.0648	–	0.0659	0.0586	0.117
P222D	0.0882	0.063	0.0706	–	0.0745	–	–	0.0824	0.0707	–	0.074	0.0588	0.0619	0.0741	–	–	0.0614	–	–
E223I	0.0685	0.0705	0.0637	0.0637	0.0811	–	0.0359	–	0.0699	–	0.0601	–	0.0588	–	–	–	0.103	–	0.0603
F226H	0.0648	0.0697	0.0664	0.0508	0.0935	0.107	0.0825	–	0.0872	0.0719	0.0686	0.0329	–	0.0779	0.0537	–	–	0.078	0.0821
F226N	0.0653	0.0726	0.0649	–	0.0918	–	–	–	0.0745	–	0.0733	0.0554	0.0727	–	0.0557	–	0.0927	0.0716	0.0733
Q227K	0.0505	0.0753	0.0607	–	0.0878	–	0.0633	0.0771	0.0711	–	0.0492	–	–	–	–	–	–	–	0.0685
Q227V	0.0626	0.0813	–	–	0.118	0.0606	0.071	0.113	–	–	0.0533	0.0691	0.0776	–	0.0659	–	0.109	0.0614	–
V229C	0.102	–	0.0645	0.0646	0.0732	0.0678	0.0743	0.0786	0.0938	0.0781	–	0.06	0.0641	0.0603	0.062	0.0821	0.0814	–	0.0653
